Paper PMC4336329 (PLoS ONE, 2015)
The whole screen tested about 310,000 compounds, of which about 2,200 (0.71%) showed an effect of 50% or more. The effect is printed as a negative number. This is one part of the list.

Each compound was assayed against human ether-à-go-go-related gene (hERG) potassium channel (human, UniProt Q12809) (assay: primary screen, population patch clamp on CHO cells stably expressing hERG).
human ether-à-go-go-related gene (hERG) potassium channel, sequence (Q12809 whole entry, looked up): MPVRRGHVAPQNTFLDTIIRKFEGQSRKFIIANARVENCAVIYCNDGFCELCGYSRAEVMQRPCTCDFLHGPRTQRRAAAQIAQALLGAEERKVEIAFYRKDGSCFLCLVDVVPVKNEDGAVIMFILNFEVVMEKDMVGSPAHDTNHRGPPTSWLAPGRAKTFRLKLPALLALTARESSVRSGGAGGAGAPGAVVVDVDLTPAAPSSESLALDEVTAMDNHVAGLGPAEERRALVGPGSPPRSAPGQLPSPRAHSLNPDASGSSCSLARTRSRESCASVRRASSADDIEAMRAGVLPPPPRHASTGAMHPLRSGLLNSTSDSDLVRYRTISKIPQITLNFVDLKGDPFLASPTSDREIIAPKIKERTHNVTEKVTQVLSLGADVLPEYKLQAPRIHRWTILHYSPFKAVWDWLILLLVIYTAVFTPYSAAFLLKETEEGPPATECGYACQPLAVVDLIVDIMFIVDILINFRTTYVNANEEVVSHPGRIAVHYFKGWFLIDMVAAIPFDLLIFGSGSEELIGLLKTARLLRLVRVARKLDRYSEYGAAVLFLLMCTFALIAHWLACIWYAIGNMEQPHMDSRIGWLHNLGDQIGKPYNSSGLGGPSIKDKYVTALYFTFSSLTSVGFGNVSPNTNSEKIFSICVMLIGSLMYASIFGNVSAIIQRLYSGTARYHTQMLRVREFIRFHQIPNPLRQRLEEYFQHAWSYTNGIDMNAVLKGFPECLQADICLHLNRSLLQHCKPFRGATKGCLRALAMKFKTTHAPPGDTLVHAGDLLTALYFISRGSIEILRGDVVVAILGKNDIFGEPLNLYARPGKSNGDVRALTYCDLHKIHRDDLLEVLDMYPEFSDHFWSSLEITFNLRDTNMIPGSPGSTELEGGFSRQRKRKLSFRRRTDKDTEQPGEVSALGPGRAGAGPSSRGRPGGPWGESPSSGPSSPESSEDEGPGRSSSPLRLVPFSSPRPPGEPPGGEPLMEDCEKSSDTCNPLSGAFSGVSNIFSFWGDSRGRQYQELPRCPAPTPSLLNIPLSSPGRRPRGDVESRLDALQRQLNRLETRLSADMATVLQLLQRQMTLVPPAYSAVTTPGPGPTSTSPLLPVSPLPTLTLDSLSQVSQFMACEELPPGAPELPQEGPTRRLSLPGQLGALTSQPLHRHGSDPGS

Row | SMILES | hERG current change (%, negative = inhibition) at 1uM
1 | COc1ccc(CNC(=O)COC(=O)c2ccc(F)c(S(=O)(=O)N3CCCCC3)c2)cc1OC | 11.7%
2 | COc1cccc(NC(=S)N(CCCN2CCCC2)Cc2cccn2Cc2ccc(Cl)cc2)c1 | -4.22%
3 | C/C(=N/NC(=O)c1ccncc1)c1ccc2c(c1)OCO2 | 13.7%
4 | CCc1noc(C)c1C(=O)N(C)CC(=O)Nc1ccccc1C(F)(F)F | 7.89%
5 | COc1ccc(OC)c(Nc2cc(C)nc3ccccc23)c1 | -3.29%
6 | CCC(CC)c1nnc(NC(=O)C2CCCO2)s1 (centres unmarked) | 2.37%
7 | CCN(CC)c1ccc(/C=C/c2cccc[n+]2C)c(OC)c1.[I-] | -1.37%
8 | Cc1cc(NC(=O)c2cccs2)ncc1NC(=O)C(C)(C)C | 12.4%
9 | CCc1ccccc1NC(=O)CN(C)C(=O)Cn1ncc(Cl)c(Cl)c1=O | 6.43%
10 | c1ccc(Nc2nc(N3CCCC3)nc(N3CCOCC3)n2)cc1 | 4.8%
11 | O=C(c1ccc2c(c1)OCCO2)N1CCN(c2ncc(C(F)(F)F)cc2Cl)CC1 | 6.27%
12 | COc1ccc(C(=O)N2CCN(c3ccc(C)c(C)c3)CC2)cc1OC | 7.29%
13 | CC1CCN(Cc2c(C(=O)O)nnn2-c2nonc2N)CC1 | -4.2%
14 | CN(C(=O)c1cc([N+](=O)[O-])ccc1NCc1cccnc1)c1ccccc1 | 5.16%
15 | CC(C)CCn1c(SCC(=O)N2CC(=O)Nc3ccccc32)nc2scc(-c3cccs3)c2c1=O | 12.7%
16 | C#CCOCCOCCOCCNc1nc(N2CCN(C(=O)[C@H]([C@@H](C)CC)n3cc([C@@H](N)CO)nn3)CC2)nc(N2CCN(C(=O)[C@H](CCCCN)n3cc([C@@H](N)C(C)CC)nn3)CC2)n1.Cl (some centres unmarked) | 2.56%
17 | CCCCC(=O)Nc1nnc(SCC(=O)Nc2ccc(OC)cc2)s1 | 13.9%
18 | BrC(/C=C\c1ccccc1)=N/Nc1nc(N2CCOCC2)nc(N2CCOCC2)n1 | 4.01%
19 | CCN(CC)C(=O)c1ccc(C(=O)c2ccccc2)cc1 | 6.39%
20 | CN(C)/C=N/c1nc2nccc(-c3cccs3)n2n1 | 18.1%
21 | CC(=O)Nc1ccc(S(=O)(=O)NCC2CCC(C(=O)NCc3ccccc3)CC2)cc1 (centres unmarked) | 1.85%
22 | Cn1c(=O)c2c(nc(OCc3ccc4c(c3)OCO4)n2Cc2ccccc2Cl)n(C)c1=O | 6.8%
23 | CCCN(Cc1cc2cc(C)ccc2[nH]c1=O)C(=O)c1cccc([N+](=O)[O-])c1 | -0.504%

Row | SMILES | hERG current change (%, negative = inhibition) at 1uM
24 | CC(C)(C)OC(=O)NNC(=O)Nc1ccccc1C(F)(F)F | 12.3%
25 | Cc1ccc(N2CCN(S(=O)(=O)c3ccc(C)cc3)CC2)cc1 | 7.12%
26 | Cc1[nH]c2ccccc2c1C(=O)C(C)OC(=O)c1ccccc1NCCO (centres unmarked) | 12.8%
27 | OCC[C@@H]1C[C@H](O)[C@@H](O)[C@@]2(OCc3ccccc32)O1 | 12%
28 | CCOC(=O)C(Cc1ccccc1)NC(=O)Cn1nnc(-c2ccccc2)n1 (centres unmarked) | -6.34%
29 | O=C(O)CSc1ncn[nH]1 | -5.94%
30 | CN1Cc2c(N)cccc2C(c2ccccc2)C1.O=C(O)/C=C\C(=O)O (centres unmarked) | 2.56%
31 | COc1ccc(/C=N/N(C)C2=NS(=O)(=O)c3ccccc32)cc1 | 12.3%
32 | COc1cc(/C=C2\SC(=S)N(NS(=O)(=O)c3ccccc3)C2=O)cc(OC)c1OC | 13%
33 | COc1cc(OC)cc(N2CC(C)(C)C2=O)c1 | 5.17%
34 | CCOc1ccc(OC(=O)c2cccc(S(=O)(=O)N3CCN(C)CC3)c2)cc1 | 8.46%
35 | O=C(CN1C(=O)c2cccnc2Oc2ccc(Cl)cc21)NCCCc1ccccc1 | 4.41%
36 | COc1ccc(-c2ocnc2C(=O)Nc2ccc(N3CCOCC3)cc2N2CCOCC2)cc1OC | 5.8%
37 | Cc1ccc(C(=O)OCC(=O)NNC(=O)c2ccc([N+](=O)[O-])cc2)o1 | 14.1%
38 | COc1ccccc1N1CCN(c2cc(=O)n(-c3ccc(Br)cc3)c(=O)[nH]2)CC1 | 6.54%
39 | COc1ccc(C(=O)CCC(=O)Nc2cccc(Cl)c2)cc1 | -1.27%
40 | CCOc1ccc(-c2cnc3n2CCC3)cc1.Cl | -5.39%
41 | CC1CCCCC1NC(=O)C1CCN(S(=O)(=O)c2cccc3nsnc23)CC1 (centres unmarked) | 13.6%
42 | Cc1ccc(C(=O)OCC(=O)N2CCOCC2)c(C)c1 | 16.1%
43 | Cc1ccccc1OCCC(=O)OCC(=O)N1CCN(S(=O)(=O)c2ccc(Cl)cc2)CC1 | 3.31%
44 | O=C(NCCN1CCOCC1)c1ccc2c(c1)N(Cc1ccc(Cl)cc1)CCS2 | 6.21%
45 | CCN1CCCC1CNC(=O)Cn1nc(C)n2c(cc3cc(C)ccc32)c1=O (centres unmarked) | -0.326%
46 | Cc1cccc(NC(=O)c2ccc(N3C(=O)C4C5C=CC(C6CC56)C4C3=O)cc2)c1 (centres unmarked) | 15.3%

Row | SMILES | hERG current change (%, negative = inhibition) at 1uM
47 | CCOC(=O)c1cnc2ccccc2c1Nc1ccc2c(c1)OCCO2 | -4.82%
48 | CCOC(=O)c1ccccc1NC1CC(=O)N(c2ccccc2C)C1=O (centres unmarked) | 6.65%
49 | O=C(CSc1nccn1Cc1ccccc1)Nc1nccs1 | 6.09%
50 | CCCCNC(=O)CC1SC(=NCC)N(CC)C1=O (centres unmarked) | 11.5%
51 | O=C(CN1C(=O)c2ccccc2S1(=O)=O)c1ccc(F)cc1 | 14%
52 | Oc1ccc(N=Nc2ccc3c(c2)OCCO3)c2cccnc12 | 7.89%
53 | C/C(=N\NC(=O)CSCc1ccc(Cl)cc1)c1ccc(NC(=O)c2ccccc2)cc1 | 15.9%
54 | CCNS(=O)(=O)c1ccc(CCC(=O)N2CCN(c3cc(Cl)ccc3C)CC2)cc1 | 12.4%
55 | CC(C)CC(=O)N1CCN(Cc2ccc3ccccc3c2)CC1 | 6.91%
56 | CCn1nnc2c(=O)oc3ccccc3c21 | 15.5%
57 | COC(=O)/C=C1\SC(N)=NC1=O | 9.93%
58 | COc1cc(NS(=O)(=O)c2ccc(N=Cc3c(C)[nH]n(-c4ccccc4)c3=O)cc2)nc(OC)n1 | 3.08%
59 | O=C(C[n+]1ccccc1)c1ccc(-c2ccccc2)cc1.[Br-] | -2.45%
60 | CCOc1ccc(C(=O)NCC(C)NC(=O)c2ccc(OCC)cc2)cc1 (centres unmarked) | 22.5%
61 | Cc1nn(-c2ccc(F)cc2)c2sc(C(=O)O)cc12 | 9.73%
62 | CCOC(=O)c1c(N)sc(C(=O)N2CCCCC2)c1C | 10.9%
63 | Cc1c(Cl)cccc1NC(=O)Nc1ccc(C(N)=O)cc1 | 6.56%
64 | O=C(N/N=C/c1cccc(NC(=O)c2ccc(Cl)cc2)c1)c1ccc(O)cc1 | 13.8%
65 | COc1cc(C2Nc3ccccc3NC3=C2C(=O)CC(C)(C)C3)cc(OC)c1OC(C)=O (centres unmarked) | 15.1%
66 | COCCNC(=O)Cn1cc(C=C2C(=O)NC(=O)NC2=O)c2ccccc21 | 6.52%
67 | COc1cc(C(=O)Nc2cccc(-c3cn4cccnc4n3)c2)cc(OC)c1OC | 6.58%
68 | CCN(CC(=O)Nc1ccc(OC)cc1)CC(=O)Nc1cccc(C#N)c1 | 15.1%
69 | O=C(Nc1ccc(-n2ccnc2P(=O)(O)c2ccccc2)cc1)c1ccccc1Br | -8.32%

Row | SMILES | hERG current change (%, negative = inhibition) at 1uM
70 | COc1ccccc1NS(=O)(=O)c1ccccc1C#N | 16.9%
71 | CCCOC(=O)Oc1ccc2c(=O)c(Oc3cc(C)cc(C)c3)coc2c1 | -0.172%
72 | COc1cc(OC)cc(C(=O)Nc2ccccc2NC(C)=O)c1 | 11.7%
73 | O=C(CN1CCN(Cc2ccccc2)CC1)c1ccccc1 | 10.8%
74 | CCCCn1c(O)c(C(C)=NCCN2CCOCC2)c(=O)[nH]c1=O | -1.69%
75 | CCN(CC)S(=O)(=O)c1ccc(N)cc1 | 4.31%
76 | O=C(/C=C/c1cnc2ccccc2n1)NC12CC3CC(CC(C3)C1)C2 | 1.96%
77 | CC1(C)CNC(=O)c2sc(NC(=O)c3ccccc3)nc2C1 | 8.38%
78 | C=CCNC(=O)c1cc(=O)c2ccccc2o1 | 9.42%
79 | CCOC(=O)C1CCCN(S(=O)(=O)c2ccc3c(c2)NC(=O)CO3)C1 (centres unmarked) | 9.8%
80 | CCOC(=O)Cc1nc(-c2ccccc2)n[nH]1 | 16%
81 | CCC(C)NC(=O)[C@@H]1CSC2c3ccccc3C(=O)N21 (some centres unmarked) | 9.7%
82 | COc1cccc(OC)c1C(=O)NC(=O)Nc1c(F)cc(F)cc1F | 14.6%
83 | CC1CCCC/C1=N/Nc1ccc([N+](=O)[O-])cc1[N+](=O)[O-] (centres unmarked) | 4.88%
84 | Cc1nn(C(=O)c2cccnc2)c(C)c1Sc1ccc(Br)cc1 | -6.21%
85 | CCOC(=O)Nc1nc2ccccc2s1 | 3.32%
86 | O=C(NC1=NCCS1)C1CCN(S(=O)(=O)c2ccccc2C(F)(F)F)CC1 | 10.4%
87 | CCN(CC)CCOC(=O)C1(c2ccccc2)CCOCC1.Cl | 12.5%
88 | O=C(COC(=O)Cn1[nH]c(=O)c2ccccc2c1=O)Nc1c(Cl)cccc1C(F)(F)F | 1.11%
89 | O=C(NCc1ccc2c(c1)OCO2)C1CCCN1C(=O)Nc1cccc(F)c1 (centres unmarked) | -7.36%
